Our source for the self-cleavage values is the RNAGym collection of RNA variant scans (doi:10.7554/elife.90254).

Read counts are not given, so values of variants with three or more changes are uncertain.

B1: OR4K15 (parent)
chain: GUUAACGGUCAUAGGCCAUGGAAACUAGGAGCACCAUUUCGCUGCCAGUGAAGAAAUGAACAAAGAAAAUCUGGGCCAGGCAGGCAUCAAAAGAAAUAGUCUUGCGCUCAACCAGAAAGUCUGUAAUCAUUUUAAGGGUA

This data set covers variants of B1. Description: self-cleavage, relative activity (ratio to wild type); higher = more cleavage; in vitro, sequencing; the parent is a self-cleaving ribozyme.
Regarding U39C U87C A117G, the self-cleavage was 2.14.

As to U38C U57C A67G U132C, the self-cleavage is 1.83.

On to U39A C71U U72C U108A U124A U131C, for which the self-cleavage stood at 0.

As to U39C C101U U132C, the self-cleavage is 0.46.

Take U39C A86G U87C A96G C113U: the self-cleavage is 0.1.

U38G A51G A66G A95G U100C G115U: the self-cleavage came out at 0.46.

Consider U39C U132C U133C, for which the self-cleavage came out at 0.57.

Regarding U39C A55G A126C, the self-cleavage was found to be 1.09.

As to U39C A91U A114G, the self-cleavage was 0.63.

On to U39C A82U U87C, for which the self-cleavage turned out to be 0.14.

With U39C U49C U120C U130C, the self-cleavage worked out at 0.54.

On to U39A U43A U103C U120G, for which the self-cleavage was 0.66.

For U39C A60G A92U A117G A118G, the self-cleavage was 0.36.

On to U39A A63G U100C A110G, for which the self-cleavage stood at 0.16.

On to G41U A86G A96G, for which the self-cleavage was determined as 2.45.

With U39A A96C U103A, the self-cleavage turned out to be 0.55.

For G41A A59G A66G A91G, the self-cleavage was found to be 0.84.

With U43A U57C A140U, the self-cleavage is 1.19.

For the variant U38G A54U A68G C77U A126G, the self-cleavage is 1.14.

For U43A A52C G75A, the self-cleavage came out at 0.21.

With U43A A62G A125C, the self-cleavage was found to be 0.9.

U43A A52G U127A: the self-cleavage is 2.1.

On to U43C A51G A90G, for which the self-cleavage came to 0.84.

As to U39C U72A U102C U108C A114G A116C, the self-cleavage came to 0.

Turning to U43A A54U C85U, the self-cleavage is 1.73.

As to U38G A55U A82G, the self-cleavage was 0.66.

C42U A86G A89G C109U: the self-cleavage amounted to 0.56.

For the variant U39C U100C U102C, the self-cleavage is 2.36.

With U39C U43C A62G, the self-cleavage worked out at 1.76.

With U43C A51G A64G U127C U131A, the self-cleavage amounted to 1.42.

U39C A90G U108C: the self-cleavage turned out to be 0.02.

On to U39A A52G A56G A67G A116G U120A, for which the self-cleavage worked out at 0.76.

On to U43A A63G G73A A96G A118G, for which the self-cleavage is 0.06.

On to U39C A67G U103C U130C, for which the self-cleavage came to 0.45.

Take G41U A54G U57C G123U: the self-cleavage worked out at 2.56.

As for U38C U49A A89G, the self-cleavage was found to be 1.5.

In the case of U39A A89G A111G, the self-cleavage is 0.03.

Consider U39A A56G U70C U87A U103C U133C, for which the self-cleavage was 0.45.

As for U39C U57C A118G, the self-cleavage stood at 0.74.

As for U39C U49C A89G U108C A135G, the self-cleavage stood at 0.

As to U39C A91G A110G, the self-cleavage amounted to 0.11.

On to U39C A91G A110U, for which the self-cleavage worked out at 1.41.

G41A A78U A116G: the self-cleavage stood at 0.08.

With U43A A114G U130C, the self-cleavage was 0.08.

Consider U39C U72C A78U, for which the self-cleavage worked out at 0.14.

Consider U39C A92G A96G U131G, for which the self-cleavage is 1.53.

U38C U87C A90G U124C: the self-cleavage is 0.18.

As to U39C A60G U100C G138A, the self-cleavage was determined as 1.68.

As for U43C A47G A60G, the self-cleavage came to 1.51.

Regarding U39C A47U A95G U120A, the self-cleavage stood at 2.26.

In the case of U43A A78G U87C G119A, the self-cleavage was 0.07.

For the variant G41U A55G U87A, the self-cleavage stood at 1.27.

For C40A A59G A111G U127C, the self-cleavage stood at 0.01.

Take C42G A114G U131C: the self-cleavage amounted to 0.07.

Consider U43A G65A A86G U102C U108A A118U, for which the self-cleavage worked out at 0.02.

Consider U39G G79C U124A A126G, for which the self-cleavage worked out at 0.01.

With U39A A114G A126G, the self-cleavage amounted to 0.14.

Turning to U39C A52G U103C U124C, the self-cleavage stood at 0.44.

Turning to U38C U43C U108C A110G A114U, the self-cleavage came to 0.01.

Regarding U43A A55G A66G A110G U132C, the self-cleavage stood at 0.18.

As to G41A A62G A89G, the self-cleavage was found to be 1.71.

With G41U A126G A129U, the self-cleavage amounted to 0.59.

On to U38C U49C A126G A135U, for which the self-cleavage was 1.07.

As for U39A A55G A67G G75C U87C U130C, the self-cleavage is 0.09.

For U39C A56G U124C, the self-cleavage is 1.18.

For U39C U49C A63G G83A A90G U102C A110G, the self-cleavage was 0.04.

With U43C A47U A82G U120C, the self-cleavage came to 0.11.

With U38C U57C U139C, the self-cleavage came to 0.33.

Regarding U39C A78U A90G A91G C128U, the self-cleavage was determined as 0.27.

For the variant U43A U57C U72G G75A, the self-cleavage was determined as 0.19.

Consider U39A A52U A82G A129G, for which the self-cleavage worked out at 0.41.

Turning to U43A A55G A96G, the self-cleavage came out at 2.25.

Turning to U38C U43A U70C A92G, the self-cleavage stood at 0.58.

With U39C U87C U139C, the self-cleavage stood at 1.67.

Consider U43A A47G A78U A91G, for which the self-cleavage was 0.16.

In the case of U39C A67G U87A A110G, the self-cleavage came out at 0.15.

Take U39C C105G U131A: the self-cleavage is 0.06.

As for U39C A47U U87A, the self-cleavage is 0.86.

Take U39C G41A A90G C113A: the self-cleavage came to 0.01.

Regarding U39C U43A U102A, the self-cleavage came out at 1.08.

On to U39C A92G A114U, for which the self-cleavage was found to be 0.04.

On to U43A A69G U120C, for which the self-cleavage was determined as 0.5.

Turning to U43C A51G A66G A111G, the self-cleavage stood at 0.02.
